From PubChem BioAssay AID1508624 (National Center for Advancing Translational Sciences (NCATS), 2021) come the findings set out here.

Among all 48,000 compounds or so, about 120 (0.25%) were called active. Roughly 4% stayed inconclusive and do not appear here. The call rests on the fitted dose curve; in most records, active means well fitted activation curve with a large enough effect; inconclusive means small, poorly fitted or top-dose-only effect, or another doubt; inactive means no such curve, though single readings can be large or run the other way. The list shows a part of the results.

The assay is described as follows: Primary qHTS for Identification of Small Molecule Activators of Huntingtin-Antisense Promoter Activity. Further: nearly all actives have a fitted effect of over 55% in size. To be noted: HEK293 HTT-AS promoter firefly luciferase reporter (activity 0% = vehicle and -100% = no light), 24 h; series mostly up to 57.5 µM; activity change, positive = activation: at the top concentration. Put shortly:
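HEK293 cells carrying firefly luciferase reporters were seeded at 2,500 per well in Opti-MEM and cultured for 24 h. They were then treated with compounds at up to 57.5 uM final for 24 h at 37 degrees C before Dual-Glo luminescence readout.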
Background: qHTS replaces the single test concentration by a dilution series.
Regarding `Cn1nnnc1SCCCNCc1cccc(OCc2ccccc2F)c1`, the “activity change, positive = activation” value was inactive: -2.04%.

As for `O=C(Nc1c(C(=O)c2ccc(Cl)cc2)oc2ccccc12)c1cc(=O)c2ccccc2o1`, the “activity change, positive = activation” value was inactive: 0%.

On to `Cc1ccc2oc(=O)c(S(=O)(=O)c3ccc(F)cc3)cc2c1`, for which the “activity change, positive = activation” value was inactive: -2.52%.

As for `CCc1nc2ccc(C(=O)NCc3ccc(N(C)C)cc3)cc2nc1CC`, the “activity change, positive = activation” value was inactive: -8.65%.

For the molecule `COc1ccc(NC(=O)c2ccco2)cc1NC(=O)c1ccc(C)c(C)c1`, the “activity change, positive = activation” value was inactive: -12.4%.

In the case of `CCN(C(=O)CSc1nc2ccccc2n1Cc1ccc(C(=O)OC)cc1)c1ccccc1`, the “activity change, positive = activation” value was inactive: -15.4%.

Consider `COc1ccc(CCN2C(=O)NC(NC(=O)c3ccccc3OC)(C(F)(F)F)C2=O)cc1OC` (stereo not drawn), for which the “activity change, positive = activation” value was inactive: -21.7%.

Turning to `C=C(C)Cn1c(=O)c2c(nc3n2CCN3c2cc(C)cc(C)c2)n(C)c1=O`, the “activity change, positive = activation” value was inactive: -4.8%.

On to `O=C(O)c1ccccn1`, for which the “activity change, positive = activation” value was inactive: -5.02%.

As to `CN(C)CCNC(=O)CN1N=C(c2ccccc2)CCC1=O`, the “activity change, positive = activation” value is inactive: 1.16%.

Consider `COc1ccc(NC(=O)c2cnc(Nc3ccc(C)c(Cl)c3)c3ccccc23)c(OC)c1`, for which the “activity change, positive = activation” value was inactive: 2.71%.

As for `CC(=O)Oc1ccc(C(=C2CCCCC2)c2ccc(OC(C)=O)cc2)cc1`, the “activity change, positive = activation” value was inactive: -14.5%.

In the case of `CCCC(=O)N1CCc2cc(OC)c(OC)cc2C1COc1ccc2c(C)cc(=O)oc2c1` (stereo not drawn), the “activity change, positive = activation” value was inactive: 7.07%.

In the case of `COc1ccc2c(c1)CC(C(=O)NCCN1CCN(c3ccccc3F)CC1)CO2` (stereo not drawn), the “activity change, positive = activation” value was inactive: -18%.

`COc1ccc(CNc2nc(-c3ccc(OC)cc3)cc(C(F)(F)F)n2)cc1`: the “activity change, positive = activation” value is inactive: -41.4%.

In the case of `COc1ccc(NC(=O)Cn2c(=O)cc(C)c3c(C)nn(C)c32)cc1`, the “activity change, positive = activation” value is inactive: -25.1%.

In the case of `CCCSc1ncc(Cl)c(C(=O)Nc2ccc(S(=O)(=O)N3CCC(C)CC3)cc2)n1`, the “activity change, positive = activation” value is inactive: -37.6%.

As to `CCOc1ccc(NC(=O)Cn2cc(C(=O)c3ccc(CC)cc3)c(=O)c3cc4c(cc32)OCO4)cc1`, the “activity change, positive = activation” value was inactive: -18.2%.

As to `Cc1ccc(Cl)cc1N1CCN(C(=O)c2cnn(C(C)(C)C)c2C2CCN(C(=O)OC(C)(C)C)CC2)CC1`, the “activity change, positive = activation” value was inactive: -29%.

In the case of `CCCCc1ccc(Nc2cc(C)nc(-n3nc(C)cc3C)n2)cc1`, the “activity change, positive = activation” value is inactive: -10.1%.

In the case of `O=C(NCC(c1cccnc1)N1CCc2ccccc2C1)C(=O)Nc1ccccc1F` (stereo not drawn), the “activity change, positive = activation” value is inactive: -5.05%.

For `CCN(C(=O)CCS(=O)(=O)c1ccc2c(c1)CCN2C(C)=O)c1cccc(C(F)(F)F)c1`, the “activity change, positive = activation” value was inactive: -18.8%.

Take `CCN1CCc2c(sc(NC(=O)c3ccc(S(=O)(=O)N(C)C4CCCCC4)cc3)c2C(N)=O)C1`: the “activity change, positive = activation” value was inactive: -12.8%.

`CC(=O)O[C@]1(C(C)=O)CC[C@H]2[C@@H]3C=C(Cl)C4=CC(=O)[C@@H]5C[C@@H]5[C@]4(C)[C@H]3CC[C@@]21C`: the “activity change, positive = activation” value was inactive: -20.1%.

Take `O=C(/C=C\c1ccc2c(c1)OCO2)NC1CC(=O)N(c2ccccc2)C1` (stereo not drawn): the “activity change, positive = activation” value is inactive: -18.1%.

In the case of `CSc1ccc(CNC(=O)Cn2c(-c3cccs3)cc3cc(F)ccc32)cc1`, the “activity change, positive = activation” value is inactive: -27%.

Consider `Cc1cccc(C)c1Nc1c(-c2ccc(N3CCOCC3)cc2)nc2ncccn12`, for which the “activity change, positive = activation” value was inactive: -10.1%.

Regarding `O=C(Cn1nc(Cc2ccncc2)c2ccccc2c1=O)Nc1cccc(C(F)(F)F)c1`, the “activity change, positive = activation” value is inactive: -32.9%.

In the case of `CCN(CC)CCN(C(=O)c1ccco1)c1nc2c(C)c(C)ccc2s1`, the “activity change, positive = activation” value was inactive: -12.8%.

With `CNC(=O)c1c(NC(=O)c2cc(=O)c3cc(C)c(C)cc3o2)sc2c1CCCC2`, the “activity change, positive = activation” value is inactive: -0.01%.

With `Cc1ccc(CSCCC(=O)N2CCN(c3ccc(F)cc3)CC2)cc1`, the “activity change, positive = activation” value is inactive: -23%.

Take `COc1ccccc1CNC(=O)Cn1c(-c2ccc(F)cc2)cc(C(C)=O)c1C`: the “activity change, positive = activation” value is inactive: -14.3%.

In the case of `Cc1ccc(-c2cc(C(F)(F)F)n3nc(-c4cccc(Br)c4)cc3n2)cc1`, the “activity change, positive = activation” value is inactive: 5.27%.

`CC(=O)Nc1ccc(NC(=O)CN2C(=O)CC(c3ccco3)Sc3ccccc32)cc1` (stereo not drawn): the “activity change, positive = activation” value was inactive: -11.8%.

Take `CCn1c(=O)cc(OCC(=O)N2CCN(c3ccc(C(C)=O)cc3)CC2)c2ccccc21`: the “activity change, positive = activation” value is inactive: 0.771%.

As to `CC(C)c1cc(-c2n[nH]c(=O)n2-c2ccc3c(ccn3C)c2)c(O)cc1O`, the “activity change, positive = activation” value is inactive: -59.3%.

Regarding `COc1ccc(N2CCN(C(=O)CN3CCSc4ccccc43)CC2)cc1`, the “activity change, positive = activation” value is inactive: -20.4%.

For the molecule `CC1(C)OC2CC3C4CC(F)C5=CC(=O)C=CC5(C)C4C(O)CC3(C)[C@]2(C(=O)CO)O1` (stereo partly drawn), the “activity change, positive = activation” value is inactive: -10.3%.

In the case of `CCCCNC(=O)CC1Nc2cc(C)c(C)cc2NC1=O` (stereo not drawn), the “activity change, positive = activation” value was inactive: 7.33%.

Consider `COc1ccccc1NC(=O)c1nn(C)c2c1CS(=O)(=O)c1ccccc1-2`, for which the “activity change, positive = activation” value was inactive: -0.773%.

`CN(C)S(=O)(=O)c1ccc(C(=O)NCCSc2c(-c3ccc(Br)cc3)[nH]c3ccccc23)cc1`: the “activity change, positive = activation” value is inactive: -28.5%.

For `Cc1c(Cl)cccc1N1CCn2c1nc1c2c(=O)n(CC(=O)O)c(=O)n1C`, the “activity change, positive = activation” value is inactive: 3.44%.

Turning to `COc1ccc(Cl)cc1NC(=O)Nc1c[nH]c(=O)[nH]c1=O`, the “activity change, positive = activation” value was inactive: -0.139%.

With `O=C(O)C1CCCN(CCC=C(c2ccccc2)c2ccccc2)C1` (stereo not drawn), the “activity change, positive = activation” value was inactive: -7.37%.

Regarding `O=C(NCCc1ccc(Cl)cc1)c1nnc(Cc2ccc(F)cc2)o1`, the “activity change, positive = activation” value was inactive: 7.49%.

In the case of `Cc1ccc(NC(=O)C2CCCN(c3ncnc4onc(C)c34)C2)c(Cl)c1` (stereo not drawn), the “activity change, positive = activation” value is inactive: -35.1%.

Consider `O=C(CCSCc1ccc(Cl)cc1)NCCc1ccccc1`, for which the “activity change, positive = activation” value is inactive: -1.68%.

`CCc1sc(Nc2cccc(Cl)c2)nc1-c1cc2cccc(OC)c2oc1=O`: the “activity change, positive = activation” value was inactive: -11.8%.
